We go through 11 compounds from the supplement of paper PMC4604168 (melanoma cell lines).

Some of the results follow. Single values are uncertain, as repeats are few or missing.
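Note: cells treated in 1,536-well plates, then fixed and DAPI-stained, with nuclei counted from automated high-throughput microscope images.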

This test relates to A375. The experiment in a line: cell count relative to DMSO control; melanoma cells; higher = more viable cells. The following applies: library dose: standard library concentration; 72 h.
Turning to `Nc1ncn([C@H]2C[C@H](O)[C@@H](CO)O2)c(=O)n1` [decitabine] + Cc1nc(Nc2ncc(C(=O)Nc3c(C)cccc3Cl)s2)cc(N2CCN(CCO)CC2)n1 [dasatanib] (first compound 0.5 µM, partner dose 0.02 µM), the cell count is 80.2%.

Turning to `CC(=O)O[C@@]12CO[C@@H]1C[C@H](O)[C@@]1(C)C(=O)[C@H](O)C3=C(C)[C@@H](OC(=O)[C@H](O)[C@@H](NC(=O)OC(C)(C)C)c4ccccc4)C[C@@](O)([C@@H](OC(=O)c4ccccc4)[C@H]21)C3(C)C` [Docetaxel] + Nc1ncn([C@H]2C[C@H](O)[C@@H](CO)O2)c(=O)n1 [decitabine] (first compound 0.0005 µM, partner dose 0.5 µM), the cell count was 100%.

`Nc1ncn([C@H]2C[C@H](O)[C@@H](CO)O2)c(=O)n1` [decitabine] + Cc1cc(N2CCOCC2)cc2[nH]c(-c3c(NC[C@@H](O)c4cccc(Cl)c4)cc[nH]c3=O)nc12 [BMS536924] (first compound 0.5 µM, partner dose 1 µM) registered a cell count of 131%.

Consider `Nc1ncn([C@H]2C[C@H](O)[C@@H](CO)O2)c(=O)n1` [decitabine] + Cn1c(Nc2ccc(C(F)(F)F)cc2)nc2cc(Oc3ccnc(-c4ncc(C(F)(F)F)[nH]4)c3)ccc21 [CHIR265] (first compound 0.5 µM, partner dose 0.4 µM), for which the cell count turned out to be 83.9%.

As to `CC(=O)O[C@@]12CO[C@@H]1C[C@H](O)[C@@]1(C)C(=O)[C@H](O)C3=C(C)[C@@H](OC(=O)[C@H](O)[C@@H](NC(=O)OC(C)(C)C)c4ccccc4)C[C@@](O)([C@@H](OC(=O)c4ccccc4)[C@H]21)C3(C)C` [Docetaxel] + C[C@]1(c2nc3c(C(N)=O)cccc3[nH]2)CCCN1 [Veliparib] (first compound 0.0005 µM, partner dose 7 µM), the cell count was 75.3%.

With `Nc1nc(F)nc2c1ncn2[C@@H]1O[C@H](CO)[C@@H](O)[C@@H]1O` [fludarabine] + Nc1cccc2c1CN(C1CCC(=O)NC1=O)C2=O [lenalidomide] (first compound 1 µM, partner dose 5 µM), the cell count is 19%.

For `CC(=O)O[C@@]12CO[C@@H]1C[C@H](O)[C@@]1(C)C(=O)[C@H](O)C3=C(C)[C@@H](OC(=O)[C@H](O)[C@@H](NC(=O)OC(C)(C)C)c4ccccc4)C[C@@](O)([C@@H](OC(=O)c4ccccc4)[C@H]21)C3(C)C` [Docetaxel] + C=C(c1ccc(C(=O)O)cc1)c1cc2c(cc1C)C(C)(C)CCC2(C)C [Bexarotene] (first compound 0.0005 µM, partner dose 10 µM), the cell count worked out at 69.9%.

`Nc1ccn([C@@H]2O[C@H](CO)[C@@H](O)C2(F)F)c(=O)n1` [gemcitabine] + Cc1ccc(NC(=O)c2cccc(N(C)C)c2)cc1NC(=O)c1ccc(O)cc1 [ZM336372] (first compound 0.002 µM, partner dose 10 µM) showed a cell count of 100%.

For the compound `Nc1ccn([C@@H]2O[C@H](CO)[C@@H](O)C2(F)F)c(=O)n1` [gemcitabine] + Clc1ccc(Nc2nnc(Cc3ccncc3)c3ccccc23)cc1 [vatalanib] (first compound 0.002 µM, partner dose 10 µM), the cell count was 74.5%.

Take `CC(=O)O[C@@]12CO[C@@H]1C[C@H](O)[C@@]1(C)C(=O)[C@H](O)C3=C(C)[C@@H](OC(=O)[C@H](O)[C@@H](NC(=O)OC(C)(C)C)c4ccccc4)C[C@@](O)([C@@H](OC(=O)c4ccccc4)[C@H]21)C3(C)C` [Docetaxel] + COc1ccc(Cl)c(Nc2nc3ccccc3nc2NS(=O)(=O)c2cccc(NC(=O)C(C)(C)N)c2)c1 [XL147] (first compound 0.0005 µM, partner dose 4 µM): the cell count worked out at 82.5%.

`CO[C@H]1C[C@@H]2CC[C@@H](C)[C@@](O)(O2)C(=O)C(=O)N2CCCC[C@H]2C(=O)O[C@H]([C@H](C)C[C@@H]2CC[C@@H](OCCO)[C@H](OC)C2)CC(=O)[C@H](C)/C=C(\C)[C@@H](O)[C@@H](OC)C(=O)[C@H](C)C[C@H](C)/C=C/C=C/C=C/1C` [everolimus] + CCc1ccc(CCOc2ccc(CC3SC(=O)NC3=O)cc2)nc1 [pioglitazone] (first compound 0.1 µM, partner dose 10 µM) registered a cell count of 98.8%.
